Like-named read-outs stand apart in the source and are kept apart here.
How the values were obtained:
[1] = system: dogs anesthetized with isoflurane; assay: Isoflurane MAC after perzinfotel by IV, SQ, IM routes, with or without butorphanol (Example 3, Latin square crossover); conditions: for Mean MAC during isoflurane anesthesia, 1st MAC: n = 6 dogs
[2] = system: dogs anesthetized with isoflurane
[3] = system: dogs anesthetized with isoflurane; conditions: for Mean MAC of isoflurane required to maintain anesthesia, 1st: approx 2 hours after perzinfotel; for Mean MAC of isoflurane required to maintain anesthesia, 1st / Mean MAC of isoflurane required to maintain anesthesia, 2nd: n = 6 dogs; for Mean MAC of isoflurane required to maintain anesthesia, 2nd: approx 5 hours after perzinfotel; for Mean MAC of isoflurane required to maintain anesthesia, AVERAGE: average of 1st and 2nd
[4] = system: dogs anesthetized with isoflurane; assay: Hemodynamic and respiratory parameters, concurrent with MAC determinations (Example 1); format: in vivo; conditions: for Body Temperature / DAP / ETCO2 / ETO2 / Heart Rate / Respiratory Rate / SAP / Sp02 / MAP: isoflurane-anesthetized dogs
Method: Hemodynamic and respiratory parameters were also collected concurrently with MAC determinations. These included body temperature, respiratory rate, median arterial blood pressure (MAP), heart rate, percent saturation of hemoglobin with oxygen, (SpO2), systolic arterial blood pressure (SAP), diastolic arterial blood pressure (DAP), end-tidal [exhaled] oxygen concentration (ETO2), and end-tidal [exhaled] carbon dioxide concentration (ETCO2). […] Hemodynamic and respiratory parameters were measured concurrently with the MAC determinations shown in Table 1, except for conscious dog data.

[5] = Treatment G: butorphanol 0.2 mg/Kg IM for 2nd MAC

## Oc1ccc2c(c1)[C@@]13CCCC[C@@]1(O)[C@@H](C2)N(CC1CCC1)CC3 [BUTORPHANOL, reference compound]
[1]; [5]
  MAC change versus CTRL, 2nd MAC: −19%
  Mean MAC during isoflurane anesthesia, 2nd MAC: 0.97%

## O=c1c2c(c1=O)N(CCP(=O)(O)O)CCCN2 [Perzinfotel, [2-(8,9-dioxo-2,6-diazabicyclo[5.2.0]non-1-(7)-en-2-yl)ethyl]phosphonic acid]
[2]; all doses and routes of administration (Example 3)
  BIS: increased
[2]; dog, in vivo
  amount of cardiopulmonary depression produced by the isoflurane anesthesia: decreased
[3]; IV 5 mg/kg perzinfotel
  Mean MAC of isoflurane required to maintain anesthesia, 1st: 1.03%
  Mean MAC of isoflurane required to maintain anesthesia, 2nd: 0.99%
  Mean MAC of isoflurane required to maintain anesthesia, AVERAGE: 1.01%
[3]; IV 10 mg/kg perzinfotel
  Mean MAC of isoflurane required to maintain anesthesia, 1st: 0.93%
  Mean MAC of isoflurane required to maintain anesthesia, 2nd: 0.93%
  Mean MAC of isoflurane required to maintain anesthesia, AVERAGE: 0.93%
[3]; IV 20 mg/kg perzinfotel
  Mean MAC of isoflurane required to maintain anesthesia, 1st: 0.72%
  Mean MAC of isoflurane required to maintain anesthesia, 2nd: 0.70%
  Mean MAC of isoflurane required to maintain anesthesia, AVERAGE: 0.71%
[3]; single IV bolus, longest interval between dosing and second MAC determination
  duration for which effects of a single dose on MAC were sustained: at least 5 hours
[1]; Treatment A: 20 mg/Kg IV
  MAC change versus CTRL, 1st MAC: −43%
[1]; Treatment A: 20 mg/Kg IV, 2nd MAC
  MAC change versus CTRL, 2nd MAC: −31%
[1]; Treatment A: 20 mg/Kg IV, 2nd MAC, 2 hours later
  Mean MAC during isoflurane anesthesia, 2nd MAC: 0.83%
[1]; Treatment B: 20 mg/Kg SQ
  MAC change versus CTRL, 1st MAC: −34%
  Mean MAC during isoflurane anesthesia, 1st MAC: 0.75%
[1]; Treatment B: 20 mg/Kg SQ, 2nd MAC
  MAC change versus CTRL, 2nd MAC: −35%
[1]; Treatment B: 20 mg/Kg SQ, 2nd MAC, 2 hours later
  Mean MAC during isoflurane anesthesia, 2nd MAC: 0.78%
[1]; Treatment C: 20 mg/Kg IM
  Mean MAC during isoflurane anesthesia, 1st MAC: 0.70%
[1]; Treatment C: 20 mg/Kg IM, 2nd MAC, 2 hours later
  Mean MAC during isoflurane anesthesia, 2nd MAC: 0.75%
[1]; Treatment D: 10 mg/Kg IM
  MAC change versus CTRL, 1st MAC: −34%
  Mean MAC during isoflurane anesthesia, 1st MAC: 0.75%
[1]; Treatment D: 10 mg/Kg IM, 2nd MAC
  MAC change versus CTRL, 2nd MAC: −33%
[1]; Treatment D: 10 mg/Kg IM, 2nd MAC, 2 hours later
  Mean MAC during isoflurane anesthesia, 2nd MAC: 0.80%
[1]; Treatment E: 30 mg/Kg IM, 2nd MAC
  MAC change versus CTRL, 2nd MAC: −46%
[1]; Treatment E: 30 mg/Kg IM, 2nd MAC, 2 hours later
  Mean MAC during isoflurane anesthesia, 2nd MAC: 0.65%
[1]; all doses and all routes (IV, IM, SC)
  isoflurane MAC: substantially decreased
[4]; 10 and 20 mg/kg perzinfotel
  all blood pressure parameters (MAP, SAP, and DAP) versus control levels with isoflurane alone: significantly different from control levels
[4]; IV perzinfotel 5 mg/kg, 1st
  Body Temperature: 37.8 °C
  DAP: 73 mm Hg
  ETCO2: 32 mm Hg
  ETO2: 94 mm Hg
  Heart Rate: 129 beats/min
  Respiratory Rate: 24 breaths/min
  SAP: 116 mm Hg
  Sp02: 99%
[4]; IV perzinfotel 5 mg/kg, 2nd
  Body Temperature: 37.8 °C
  DAP: 69 mm Hg
  ETCO2: 30 mm Hg
  ETO2: 94 mm Hg
  Heart Rate: 113 beats/min
  MAP: 88 mm Hg
  Respiratory Rate: 27 breaths/min
  SAP: 114 mm Hg
  Sp02: 100%
[4]; IV perzinfotel 10 mg/kg, 1st
  Body Temperature: 37.9 °C
  DAP: 82 mm Hg
  ETCO2: 37 mm Hg
  ETO2: 94 mm Hg
  Heart Rate: 132 beats/min
  MAP: 98 mm Hg
  Respiratory Rate: 26 breaths/min
  SAP: 126 mm Hg
  Sp02: 99%
[4]; IV perzinfotel 10 mg/kg, 2nd
  Body Temperature: 38.0 °C
  DAP: 80 mm Hg
  ETCO2: 32 mm Hg
  ETO2: 95 mm Hg
  Heart Rate: 140 beats/min
  MAP: 96 mm Hg
  Respiratory Rate: 34 breaths/min
  SAP: 124 mm Hg
  Sp02: 100%
[4]; IV perzinfotel 20 mg/kg, 1st
  Body Temperature: 37.9 °C
  DAP: 86 mm Hg
  ETCO2: 31 mm Hg
  ETO2: 95 mm Hg
  Heart Rate: 134 beats/min
  MAP: 105 mm Hg
  Respiratory Rate: 29 breaths/min
  SAP: 138 mm Hg
  Sp02: 99%
[4]; IV perzinfotel 20 mg/kg, 2nd
  Body Temperature: 37.9 °C
  DAP: 85 mm Hg
  ETCO2: 30 mm Hg
  ETO2: 94 mm Hg
  Heart Rate: 141 beats/min
  MAP: 106 mm Hg
  Respiratory Rate: 16 breaths/min
  SAP: 139 mm Hg
  Sp02: 99%
